Reference: PMC4336329 (PLoS ONE, 2015)
Screen size: about 310,000 compounds; about 2,200 (0.71%) showed an effect of 50% or more. Effects have a minus sign here. The list shows a part of the results.

These molecules were tested against human ether-à-go-go-related gene (hERG) potassium channel (human, UniProt Q12809) (assay: primary screen, population patch clamp on CHO cells stably expressing hERG).
Sequence of human ether-à-go-go-related gene (hERG) potassium channel (Q12809 whole entry, looked up): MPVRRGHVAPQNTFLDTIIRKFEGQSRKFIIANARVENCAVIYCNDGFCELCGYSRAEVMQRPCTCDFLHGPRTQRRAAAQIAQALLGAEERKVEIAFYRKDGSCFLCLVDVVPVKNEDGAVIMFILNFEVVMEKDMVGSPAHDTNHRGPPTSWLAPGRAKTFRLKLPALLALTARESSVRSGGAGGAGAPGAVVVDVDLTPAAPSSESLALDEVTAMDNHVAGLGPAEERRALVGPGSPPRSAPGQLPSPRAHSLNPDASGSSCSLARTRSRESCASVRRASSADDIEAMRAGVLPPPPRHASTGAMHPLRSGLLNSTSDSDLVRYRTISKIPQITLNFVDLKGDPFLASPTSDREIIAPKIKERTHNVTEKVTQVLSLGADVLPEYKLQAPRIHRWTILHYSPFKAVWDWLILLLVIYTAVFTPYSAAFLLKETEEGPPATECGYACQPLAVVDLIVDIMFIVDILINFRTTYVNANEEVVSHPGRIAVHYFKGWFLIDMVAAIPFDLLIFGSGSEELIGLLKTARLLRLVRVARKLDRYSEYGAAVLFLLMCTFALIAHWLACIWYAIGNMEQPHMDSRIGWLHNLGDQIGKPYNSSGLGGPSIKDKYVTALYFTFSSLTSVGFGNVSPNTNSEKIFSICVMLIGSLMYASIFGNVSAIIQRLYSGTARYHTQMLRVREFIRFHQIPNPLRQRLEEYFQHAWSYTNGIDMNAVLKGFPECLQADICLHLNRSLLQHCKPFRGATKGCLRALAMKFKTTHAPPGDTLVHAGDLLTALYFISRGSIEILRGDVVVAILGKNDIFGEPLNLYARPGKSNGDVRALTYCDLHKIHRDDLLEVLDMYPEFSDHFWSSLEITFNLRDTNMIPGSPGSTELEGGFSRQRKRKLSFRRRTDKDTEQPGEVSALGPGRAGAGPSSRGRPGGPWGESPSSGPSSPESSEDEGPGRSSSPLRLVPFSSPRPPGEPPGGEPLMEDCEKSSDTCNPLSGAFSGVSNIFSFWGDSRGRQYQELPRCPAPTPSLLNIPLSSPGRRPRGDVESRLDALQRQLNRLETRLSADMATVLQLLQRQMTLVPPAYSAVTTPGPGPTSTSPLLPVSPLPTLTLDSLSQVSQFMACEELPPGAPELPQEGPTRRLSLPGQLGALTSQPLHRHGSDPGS

Row | Structure (SMILES) | hERG current change (%, negative = inhibition) at 1uM
1 | CC(=O)NC1(C(F)(F)F)N=C2SCCN2C1=O (centres unmarked) | 5.43%
2 | CC(Sc1nc2c(N)ncnc2n1CCOc1ccccc1)C(=O)O (centres unmarked) | 14.8%
3 | CCC(NC(=O)c1ccccc1NC(=O)c1ccccc1)C(=O)OC (centres unmarked) | 13.3%
4 | COCCNC(=O)c1nn2c(C(F)(F)F)cc(-c3ccccc3)nc2c1Cl | 14%
5 | Brc1cccc2sc(N3CCCC3)nc12 | 4.59%
6 | CN(C)C(=O)c1cc(C(=O)c2ccc(F)cc2C(F)(F)F)c[nH]1 | 14.3%
7 | Cc1cc2cc(CNC(=S)NCc3ccccc3)ccc2n1C | 21.9%
8 | Cc1ccc(NC(=S)N2CCC(N(C)CC3CCCO3)CC2)cc1C (centres unmarked) | 7.04%
9 | CC(NC(=O)Nc1ccccc1)C(c1ccccc1)N1CCOCC1 (centres unmarked) | 20.6%
10 | CCOC(=O)N1CCC(NC(=O)c2cc(C(=O)NCc3ccc(F)cc3)ccc2CO)CC1 | 3.58%
11 | O=C(Nc1ccccc1)c1ccccc1OCc1ccc(S(=O)(=O)N2CCOCC2)cc1 | 13.9%
12 | CCN(CC)S(=O)(=O)c1ccc(OC)c(NC(=O)CSc2cc(Cl)ccc2Cl)c1 | 7.06%
13 | Cc1ccc(-c2ccc(CCC(=O)O)n2NC(N)=S)cc1 | 0.61%
14 | O=C(O)Cc1ccc2ocnc2c1 | 8.07%
15 | O=C(CCn1cnc2ccccc2c1=O)Nc1ccc2c(c1)OCCO2 | 18%
16 | O=C(c1ccco1)C12CN3CN(CN(C3)C1)C2 | 14.7%
17 | Nc1nonc1-n1nnc(C(=O)N/N=C/c2cc(Br)cs2)c1-c1ccccc1 | 14.8%
18 | COc1ccc(CC(=O)Nc2ccc(-c3cn4ccccc4n3)cc2)cc1 | 10%
19 | COc1ccc(Cl)cc1C(=O)NCC#N | 0.998%
20 | COc1ccc(NC(=O)COc2cccc(C(F)(F)F)c2)cn1 | 16.8%
21 | COCCCn1c(=O)c2sccc2n2c(CCCC(=O)NCc3ccccc3OC)nnc12 | 11.8%
22 | O=C(Nc1ccccc1)C(=O)Nc1ccccn1 | 12%
23 | Cc1ccc(Cc2cc(-c3ccc(C)cc3)n[nH]c2=O)cc1 | 9.7%
24 | O=C1C2CCCCN2C(=O)N1CCCCN1CCN(c2ccc([N+](=O)[O-])cc2)CC1 (centres unmarked) | -80.7%
25 | CCn1c(CNc2ccccc2Cl)nnc1SCCN1CCCCC1 | -11%
26 | COC(=O)c1cccc(NC(=O)c2ccco2)c1 | 6.81%
